Measurements from PubChem BioAssay AID485344 (National Center for Advancing Translational Sciences (NCATS), 2010).
The campaign covered roughly 340,000 compounds. About 6,900 (2%) were called active. Rule as the data show it: active = inhibition above about 30%; inactive = below that, where a call was filed. Only a part is listed here, and it is no random draw. Where no call is shown, the source filed none.

These compounds were tested against D(2) dopamine receptor (Homo sapiens) (UniProt P14416) (assay: HTS Assay for Allosteric Antagonists of the Human D2 Dopamine Receptor: Primary Screen for Antagonists). Conditions: HEK293 TREx D2 cells, calcium flux, dopamine EC80; at 10 µM; stronger effect = higher value.
Procedure, shortened: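 Read-out: kinetic calcium fluorescence (1 cycle/s) in inducible HEK293 T-REx D2 cells after an EC80 dopamine addition that followed 180 s compound preincubation. Loss of the dopamine response indicates antagonism.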
Also: 0% is about no effect.

Chain of UniProt P14416 (P14416 whole entry, looked up): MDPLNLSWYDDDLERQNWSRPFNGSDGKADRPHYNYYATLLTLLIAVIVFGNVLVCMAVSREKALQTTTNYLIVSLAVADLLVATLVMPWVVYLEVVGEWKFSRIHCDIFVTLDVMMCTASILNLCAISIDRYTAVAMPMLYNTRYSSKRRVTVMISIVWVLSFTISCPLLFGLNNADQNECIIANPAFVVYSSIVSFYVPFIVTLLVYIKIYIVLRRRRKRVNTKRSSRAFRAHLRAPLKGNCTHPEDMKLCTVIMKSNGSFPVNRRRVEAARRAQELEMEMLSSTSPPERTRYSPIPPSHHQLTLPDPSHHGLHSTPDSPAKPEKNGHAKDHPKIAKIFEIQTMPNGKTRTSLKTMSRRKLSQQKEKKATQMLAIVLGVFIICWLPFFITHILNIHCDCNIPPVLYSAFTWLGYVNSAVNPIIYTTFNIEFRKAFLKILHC

In order of rising inhibition:
1. CCOC(=O)c1noc2nc(C)n(Cc3ccc([N+](=O)[O-])cc3)c(=O)c12  -28.6%
2. CCOc1ccc(NC(=O)c2c(NC(=O)c3cccs3)sc3c2CCC(C(C)(C)C)C3)cc1 (configuration not stated)  -28.2%
3. Cc1ccc(C(=O)n2nc(C)c(S(=O)(=O)N3CCOCC3)c2C)cc1  -26.9%
4. CCOC(=O)c1ccc2c(c1)N(CC(=O)Nc1ccc(CC)cc1)C(=O)c1ccccc1S2  -25.7%
5. Cc1ccc(CNC(=O)CCC(=O)N2CCSc3ccccc32)cc1  -18.5%
6. Brc1ccc2nc(SCCOc3ccccc3)[nH]c2c1  -17.6%
7. Cc1ccsc1CN1CCc2nc(N3CCN(c4ccccc4F)CC3)ncc2C1  -17.3%
8. COc1ccccc1NC(=O)c1cc(S(=O)(=O)NCCC2=CCCCC2)ccc1F  -13.9%
9. CCc1ccccc1NC(=O)C(=O)NCCc1sc(-c2cccc(F)c2)nc1C  -13.1%
10. CCOc1ccc(CCNC(=O)c2cc3sc(CC)cc3n2C)cc1OCC  -12.9%
11. CC(C)(C)C(=O)Cn1c(=O)n(-c2ccc(Cl)c(Cl)c2)c(=O)c2c3c(sc21)CCCC3  -12.9%
12. COc1cccc(CNC(=O)c2ccc3c(c2)nc2n3CCC(C)C2)c1OC (configuration not stated)  -12.6%
13. Cc1ccc(C)c(NC(=O)Nc2cccc(-c3cn4cccnc4n3)c2)c1  -10.8%
14. Nc1c(C(=O)Nc2cccc(C(F)(F)F)c2)c2ccccn2c1C(=O)c1ccccc1  -10.6%
15. Cc1ccc(CNC(=O)c2ccc(-c3nc(CS(=O)(=O)c4ccc(C)cc4)c(C)o3)cc2)cc1  -10.1%
16. CCn1c(=O)cc(SCC(=O)N2CCN(c3ccccc3F)CC2)c2ccccc21  -9.86%
17. Cn1c(SCc2ccc(F)cc2)nc2ccc(C(=O)NCc3ccccc3)cc21  -9.71%
18. Cc1cccc(C(=O)Nc2ccccc2C(=O)OCc2cc(=O)n3nc(C4CC4)sc3n2)c1  -9.46%
19. Cc1ccc2c(c1)N(C(=O)Nc1cccc3c1CCCC3)CC(C)O2 (configuration not stated)  -8.59%
20. CCOC(=O)c1c(-c2ccc(OC)c(OC)c2)csc1NC(=O)c1ccc(F)cc1  -8.32%
21. COc1ccc(NC(=O)NC(C)c2c(-n3cccc3)sc3c2CCN(C)C3)c(OC)c1 (configuration not stated)  -7.34%
22. O=C(CSc1nnc2[nH]c(=O)cc(-c3ccccc3)n12)Nc1cc(C(F)(F)F)ccc1Cl  -6.94%
23. Cc1cc(C)c2oc(C(=O)Nc3c(C(=O)Nc4ccccc4)oc4ccccc34)cc(=O)c2c1  -6.39%
24. CC(=O)Nc1nonc1-c1nc2ccccc2n1Cc1ccccc1Br  -5.75%
25. COc1ccc(C(=O)NCC(c2ccco2)S(=O)(=O)c2cccs2)cc1OC (configuration not stated)  -5.56%
26. COc1ccccc1CNC(=O)c1c(O)nc2cc(C)ccn2c1=O  -5.44%
27. Cc1ccc(S(=O)(=O)c2cn(Cc3ccc(F)cc3)c3cc(N4CCCC4)c(F)cc3c2=O)cc1  -5.37%
28. CCc1ccc(NC(=O)N2CCN(C(=O)c3nsc4ccccc34)CC2)cc1  -4.97%
29. Cc1nnc(SCc2ccc(Cl)cc2)c2cc3occc3n12  -4.25%
30. CC(C)Oc1ccc(CNC(=O)Cn2ncn3nc(-c4cccs4)cc3c2=O)cc1  -4.22%
31. CSC1=NC2(CCN(C(=O)NC3CCCCC3)CC2)N=C1c1ccc(C(C)(C)C)cc1  -2.98%
32. O=C(NCc1cccc(Cl)c1)C1CCCN(c2ncnc3onc(-c4ccc(F)cc4)c23)C1 (configuration not stated)  -2.87%
33. COc1cccc(N2C(=O)CSC23C(=O)N(CC(=O)NCc2ccc(C)cc2)c2ccccc23)c1 (configuration not stated)  -2.81%
34. COCc1cc(C)nc2sc(C(=O)Nc3cc(C)ccc3F)c(N)c12  -2.55%
35. CCOc1ccc(-c2noc(CSc3nnc(Cc4ccccc4)n3-c3cccc(C)c3)n2)cc1  -2.31%
36. Cc1cccc(Cn2nnc3c(=O)[nH]c(C4CCN(C(=O)c5ccc(F)cc5)CC4)nc32)c1  -1.96%
37. Cc1cccc(CCNC(=O)C2CCN(c3nc4ccccc4nc3C(F)(F)F)CC2)c1  -1.49%
38. CCOc1ccc(OCC)c(Nc2nc3ccc(Cl)cc3n3cnnc23)c1  -1.4%
39. Cc1ccc(-c2nc3cc(C(C)C)ccc3o2)cc1NC(=O)c1cc([N+](=O)[O-])ccc1N1CCOCC1  -1.29%
40. CCC(C)NC(=O)CCc1c(C)nc2cc(-c3ccc(OC)cc3OC)nn2c1C (configuration not stated)  -1.24%
41. Cc1cccc(N2CCN(c3cc(C)nc4c(-c5ccc(Cl)cc5)c(C)nn34)CC2C)c1 (configuration not stated)  -0.924%
42. Cc1ccc(Nc2c(-c3ccc(N4CCOCC4)cc3)nc3ncccn23)cc1C  -0.914%
43. Cc1[nH]c2ccccc2c1SCCNC(=O)c1ccccc1F  -0.855%
44. COc1cc2c(-c3ccccc3Cl)nc3c(c(C)nn3-c3ccccc3)c2cc1OC  -0.309%
45. CCCNc1ncnc2onc(C)c12  0.716%
46. CN1CCN(C(CNC(=O)c2ccccc2)c2ccc3c(c2)OCO3)CC1 (configuration not stated)  0.966%
47. COC(=O)c1ccccc1-n1cc2c(c1-c1cccc(C)c1)c(=O)n(C)c(=O)n2C  0.991%
48. COC(=O)c1cc(NC(=O)c2ccc(-c3ccc(Cl)cc3Cl)o2)cc(C(=O)OC)c1  1.05%
49. COc1ccc(-n2nc(C(=O)Nc3ccccc3OC)c3c4ccccc4n(C)c3c2=O)cc1Cl  1.87%
50. COc1ccc(CCNC(=O)Cn2cc(C(=O)c3ccc(F)cc3)c(=O)c3ccc(C)nc32)cc1OC  2.1%
51. O=C(Nc1ccc(C(F)(F)F)cc1)N1CCC(N2CCCCC2)CC1  2.39%
52. Cc1oc(-c2ccccc2F)nc1CSc1nnc(C)n2c1cc1occc12  2.5%
53. CNC(=O)C1CCN(c2nc3ccccc3nc2C(F)(F)F)CC1  3.4%
54. COCCCNC(=O)C1CCCN(c2nn3cc(-c4ccc(C)cc4)nc3s2)C1 (configuration not stated)  3.69%
55. COc1cccc(CNC(=O)Cn2c(C)c3cnn(-c4ccccc4)c(=O)c3c2C)c1  4.12%
56. CCCCn1cc(S(=O)(=O)c2ccc(Cl)cc2)c(=O)c2cc(F)c(N3CCCCC3)cc21  5.17%
57. Cc1ccnc(NS(=O)(=O)c2ccc(NC(=O)c3nc(SC(C)C)ncc3Cl)cc2)n1  5.35%
58. CC(C)(C)OC(=O)N1CCC(c2c(C(=O)N3CCOCC3)cnn2-c2cccc(F)c2)CC1  5.42%
59. Cc1ccc(CNC(=O)CCCn2c(=O)c3ccccc3n(Cc3ccc(Cl)cc3)c2=O)cc1  5.45%
60. COc1ccc(-n2nnc(-c3nc(-c4cccs4)no3)c2N)cc1  5.84%
61. CCCN(C(=O)Cn1cc(S(=O)(=O)N2CCN(c3ccccc3F)CC2)c2ccccc2c1=O)c1cccc(C)c1  6.5%
62. O=C(NCc1ccccc1Cl)c1cc2cccc3c2n1CCS3  7.41%
63. COc1ccccc1-c1cc2nc(C)c(CCC(=O)Nc3cc(C)ccc3C)c(C)n2n1  7.95%
64. Cc1ccc2oc(-c3cc(NC(=O)/C=C/c4ccco4)ccc3Cl)nc2c1  8.83%
65. CCOc1ccc(NC(=O)CN(C)S(=O)(=O)c2cnc[nH]2)cc1  8.93%
66. Cc1ccc(S(=O)(=O)N2CCC(n3c(C)nc4cccnc43)CC2)c(C)c1  10.1%
67. CCOC(=O)c1cnc2ccc(Cl)cc2c1Nc1ccc(N2CCOCC2)cc1  10.4%
68. Cc1ccccc1CN1CCCN(CC(=O)Nc2ccc3c(c2)OCCO3)S1(=O)=O  11.1%
69. Cc1ccc(-n2ncc3c(NCC(C)C)ncnc32)c(C)c1  12.1%
70. O=C(Nc1ccc(C(=O)N2CCN(c3ccccc3)CC2)cc1)c1nsc2ccccc12  12.3%
71. COc1cc2c(cc1OC)C(COc1ccc3c(C)cc(=O)oc3c1)N(C(=O)CC(C)C)CC2 (configuration not stated)  12.3%
72. CCc1cccc(NC(=O)c2ccc(CNS(=O)(=O)c3ccc4c(c3)C(C)(C)C(=O)N4C)cc2)c1  12.6%
73. CCOC(=O)C1CCCN(C(=O)c2[nH]c3ccccc3c2Sc2ccc(Cl)cc2)C1 (configuration not stated)  12.8%
74. CNC(=O)c1ccc(CSc2nc3ccncc3n2Cc2ccc(C)cc2)cc1  13.1%
75. O=C(C1CCN(c2nc3ccccc3[nH]2)CC1)N1CCN(c2cccc(Cl)c2)CC1  13.2%
76. COc1cc(Cl)c(C)cc1NC(=O)c1cnc2c(-c3cccc(C)c3)c(C)nn2c1C  14%
77. O=C(CSc1nc2c(c(=O)[nH]1)CN(Cc1ccc3c(c1)OCO3)CC2)Nc1ccc(F)c(F)c1  21%
78. Cc1cccc(-c2nc3ccccc3n3c(-c4ccccc4)c4c(=O)n(C)c(=O)n(C)c4c23)c1  25.1%

In the case of `Cc1cc(C)c(S(=O)(=O)N2CCN(C(=O)C(C)Cn3nc(C)nc3C)CC2)c(C)c1` (configuration not stated), the inhibition is reported as active: 35%.
`Cc1cc(C(C)(C)C)c(O)c(C)c1CC1=NCCN1` was tested, and the inhibition was active: 63.5%.
`Cc1cccc(NC(=O)NCCN2CCN(c3ccccc3)CC2)c1C` was tested, and the inhibition was active: 57%.
With `O=C(CN1CCN(c2ccccn2)CC1)Nc1ccccc1` the inhibition was active: 31.4%.
In the case of `O=C(NNC(=S)NCc1ccco1)c1ccc(Cl)s1`, the inhibition is reported as active: 32.7%.
`Clc1cccc(OCCN2CCN(CCOc3cccc(Cl)c3)CC2)c1` was tested, and the inhibition was active: 92.6%.
For `Cc1nc(Cl)sc1C(=O)Nc1ccc(Cl)cc1`, the inhibition was active: 40.2%.
`COc1ccccc1NC(=O)NCC(c1ccco1)N1CCCCC1` (configuration not stated) was tested, and the inhibition was active: 38.8%.
For `CCOC(=O)Cn1c(CN2CCN(c3cccc(Cl)c3)CC2)nc2c1c(=O)[nH]c(=O)n2C`, the inhibition was active: 30.5%.
With `COc1c(Br)cc(Br)cc1/C=N/NC(=O)c1cccnc1` the inhibition was active: 90.1%.
`S=C(Nc1cc(Cl)cc(Cl)c1)NC1CCN(Cc2ccccc2)CC1` was tested, and the inhibition was active: 72.2%.
In the case of `COc1ccc(OC)c(/C=C/C(=O)N(C)CC(=O)Nc2ccc(N3CCOCC3)cc2)c1`, the inhibition is reported as active: 40.4%.
In the case of `CS(=O)(=O)N1CCC(C(=O)N2CCN(c3ccccc3)CC2)CC1`, the inhibition is reported as active: 47.3%.
For `Cc1ccc(OCCNC(=O)CCNS(=O)(=O)c2ccc(C)cc2)cc1`, the inhibition was active: 30.3%.
For `Cc1cccc(-n2c(-c3ccco3)nc3nc4ccccc4nc32)c1`, the inhibition was active: 69.6%.
`COc1ccc(OC)c(CN2CCN(C(=O)c3ccc(F)cc3)CC2)c1` was tested, and the inhibition was active: 41.2%.
With `Cc1nc2ccccc2c(C)c1C(=O)c1ccccc1` the inhibition was active: 30.1%.
`OC(COc1ccccc1)CN1CCC(Cc2ccccc2)CC1` (configuration not stated) was tested, and the inhibition was active: 74.4%.
In the case of `O=C(CCN1C(=O)CSc2ccccc21)Nc1ccc(C(F)(F)F)cc1`, the inhibition is reported as active: 88.1%.
